Our source for the survival values is PubChem BioAssay AID463173 (ICCB-Longwood Screening Facility, Harvard Medical School, 2010).

The structures appear in SMILES notation. The campaign covered roughly 52,000 compounds. About 4,300 (8.3%) were called active. Cut-off read from the data, not from the text of the source: active = survival mostly below about 52% (no sharp cut-off); inactive = mostly above about 56%. The list shows a part of the results.

In this test the test system is DeltatarO mutant. Kind of test: S. aureus survival, RN4220 and DeltatarO strains – OD600, teichoic acid synthesis inhibitors, primary screen (AID 463173). To be noted: S. aureus RN4220 wild type/DeltatarO growth, OD600, 18 h, active compounds read low, screened at 18.75 µg/mL (by protocol).
On to `CCOC(=O)c1c(C)oc2ncnc(N3CCN(c4ccc(C)cc4C)CC3)c12`, for which the survival is inactive: 95%.

Consider `O=C(NCCc1ccccc1)c1cc(-c2ccc(Br)cc2)on1`, for which the survival was inactive: 64%.

`O=C(Nc1ccc(Br)cc1F)c1cc(S(=O)(=O)NC2CCCC2)ccc1F`: the survival was inactive: 119%.

With `O=C(NC1CCCCC1)C1CCCN1C(=O)NCc1ccccc1` (stereo unspecified), the survival is inactive: 62%.

Take `Cc1sc2ncn(CC(=O)Nc3ccc(F)cc3Cl)c(=O)c2c1S(=O)(=O)N1CCN(c2ncccn2)CC1`: the survival is inactive: 66%.

Consider `CCn1c(CNC(=O)c2ccccc2F)nnc1SCC(=O)NC1CCCCC1C` (stereo unspecified), for which the survival is inactive: 71%.

Consider `CCOC(=O)c1ccccc1NC(=O)Cn1c(=O)n(CCC(=O)NCc2ccccc2OC)c(=O)c2ccccc21`, for which the survival was inactive: 85%.

In the case of `Cc1cc(C)n(C(=O)c2ccoc2C)n1`, the survival was inactive: 96%.

Take `COc1ccc2c(c1)C(C)=CC(C)(C)N2C(=O)Cn1cnc2c(cnn2-c2ccccc2)c1=O`: the survival was inactive: 74%.

Take `CC(Sc1nnc(-c2ccccc2Br)o1)C(=O)Nc1cccc(Cl)c1` (stereo unspecified): the survival was active: 34%.

In the case of `CCCOc1ccc(C(=O)Nc2ccc3oc(-c4ccc5ccccc5c4)nc3c2)cc1`, the survival was inactive: 129%.

As for `COc1ccc(NC(=O)c2ccc3c(SCC(=O)O)c4c(nc3c2)CCCC4)cc1OC`, the survival is inactive: 129%.

On to `CC(=O)c1cccc(NC(=O)CSc2nnc3ccc(-c4ccc(F)cc4)nn23)c1`, for which the survival is inactive: 80%.

Turning to `Cc1cccn2c(=O)cc(CSc3nnc(NC(=O)COc4ccc(F)cc4)s3)nc12`, the survival was active: -2%.

For the molecule `CCOC(=O)c1c(S(=O)(=O)NCC(=O)N2CCN(c3cccc(Cl)c3)CC2)c(C)n(C)c1C`, the survival was inactive: 86%.

Turning to `COc1ccc(-c2nc3scc(CCNS(=O)(=O)c4c(C)noc4C)n3n2)cc1OC`, the survival is inactive: 119%.

In the case of `COc1cccc(-c2nnc3n(Cc4ccc(C)cc4)c(=O)c4ccccc4n23)c1O`, the survival is inactive: 83%.

With `CCN1CCN(c2csc3ccc(F)cc3c2=O)CC1`, the survival is inactive: 94%.

On to `CCCCN(Cc1cccs1)S(=O)(=O)c1cc(-c2cc(C)no2)ccc1C`, for which the survival is inactive: 70%.

On to `COc1ccc(C)cc1Nc1nc2c(S(=O)(=O)c3cc(C)ccc3C)nnn2c2ccsc12`, for which the survival is inactive: 86%.

`Cc1ccc(CN2CCC(CNC(=O)Nc3ccccc3F)CC2)cc1`: the survival was inactive: 113%.

As for `COc1cc2c(cc1NC(=O)COc1cc(C)cc(C)c1)oc1ccccc12`, the survival was inactive: 59%.

On to `COCCNc1nc2c(S(=O)(=O)c3ccccc3)nnn2c2ccc(Cl)cc12`, for which the survival was inactive: 74%.

Turning to `O=C(COc1ccc(Cl)cc1)NCCc1csc(-c2ccc(C(F)(F)F)cc2)n1`, the survival was inactive: 95%.

With `COc1ccc(Nc2ncnc3scc(-c4ccc(F)cc4)c23)cc1`, the survival is inactive: 92%.

Turning to `COc1ccc(Cn2c(SCc3ccc(C(=O)NC4CCCCC4)cc3)nc3cccnc32)cc1`, the survival was inactive: 106%.

Consider `CC(=O)Nc1ccc2nc(SCCOc3ccc(C)cc3)sc2c1`, for which the survival was inactive: 94%.

`COc1ccc(NC(=O)c2sc3nc(C)c(C(=O)Nc4ccc(C)cc4C)c(-c4sccc4C)c3c2N)cc1`: the survival is inactive: 91%.

Regarding `COc1ccccc1-c1cc(C(F)(F)F)nc(S(=O)(=O)CCCC(=O)Nc2ccccc2F)n1`, the survival was inactive: 70%.

Consider `CCc1c(CN2CCN(c3ccc(F)cc3)CC2)csc1C`, for which the survival was active: 38%.

As for `CN1CCN(C(=O)C2C3C=CC(C3)C2C(=O)O)CC1` (stereo unspecified), the survival is inactive: 96%.

On to `O=C(Cn1nnc(-c2ccc(C(F)(F)F)cc2)n1)NCCc1ccccc1`, for which the survival is inactive: 84%.

Regarding `Cc1cc(C)cc(NS(=O)(=O)c2cc3[nH]c(=O)c(=O)[nH]c3cc2C)c1`, the survival is inactive: 87%.

For `CC1Cc2cc(S(=O)(=O)CCC(=O)Nc3cccc(F)c3)ccc2N1C(=O)C1CC1` (stereo unspecified), the survival was inactive: 96%.

For `O=C(Nc1cc(Cl)cc(Cl)c1)c1ccc(F)c(S(=O)(=O)N2CCCC2)c1`, the survival was inactive: 78%.

On to `COc1cc(OC)c(C(=O)NCc2nc(-c3ccccc3)no2)cc1OC`, for which the survival was active: 41%.

As to `CCc1ccc(CN(Cc2ccco2)c2cnc(S(C)(=O)=O)nc2C(=O)Nc2ccc(C)c(Cl)c2)cc1`, the survival was inactive: 54%.

As to `CCOC(=O)C1CCC(CN(Cc2ccc(OC)cc2)S(=O)(=O)c2ccc(C)cc2)CC1` (stereo unspecified), the survival is inactive: 99%.

For `NNc1ncccc1C(=O)O`, the survival was inactive: 102%.

Turning to `Cc1ccc(NC(=O)CN(C)S(=O)(=O)c2cccc3cccnc23)c(C)c1`, the survival was inactive: 81%.

Take `O=C(O)C1C2C3C=CC(C3)C12` (stereo unspecified): the survival is inactive: 64%.

Turning to `O=C(Cn1ncn2c(cc3cc(F)ccc32)c1=O)NC1CCCCC1`, the survival was inactive: 79%.

Consider `COC(=O)c1ccccc1NC(=O)c1cc2ccccn2n1`, for which the survival is inactive: 73%.

`Cc1oc2c(cc(NS(=O)(=O)c3ccc(Br)cc3)c3ccccc32)c1C(=O)OCc1ccccc1`: the survival is inactive: 57%.

Regarding `CN(C)c1ccc(C(=O)Nc2sc(Nc3ccccc3)nc2C(N)=O)cc1`, the survival was inactive: 86%.

Turning to `CCCCCn1c(=O)[nH]c2cc(C(=O)N3CCN(c4ccc(OC)cc4)CC3)ccc2c1=O`, the survival is inactive: 135%.

As for `Cc1ccc(C(=O)COC(=O)CCc2nc3ccccc3[nH]c2=O)cc1C`, the survival is inactive: 94%.

For `COc1ccc(Cn2c(CCC(=O)Nc3ccc(Br)c(C)c3)nc3cccnc32)cc1`, the survival is inactive: 71%.

Consider `CC(C)C(=O)Nc1ccccc1C(=O)OCc1cc(=O)n2nc(C3CC3)sc2n1`, for which the survival is inactive: 85%.

As to `Cc1c(Cl)cccc1NC(=O)c1cc(-c2cccc(Cl)c2)on1`, the survival is inactive: 61%.

In the case of `O=C(Nc1cccc(Br)c1)Nc1nc2c(s1)CCCCCC2`, the survival is inactive: 71%.

Regarding `COc1cc2c(C(=O)N3CCN(c4cccc(Cl)c4)CC3)cn(C)c(=O)c2cc1OC`, the survival was inactive: 65%.

In the case of `O=C(CN1C(=O)c2cccnc2Oc2ccc(Cl)cc21)NCCCN1CCCCC1`, the survival was inactive: 71%.

For the molecule `Cc1nn2c(=O)cc(COC(=O)c3ccc(NC(=O)CCc4ccccc4)cc3)nc2s1`, the survival is inactive: 67%.

Consider `CCc1noc(-c2ccc(N3CCC(C)CC3)c([N+](=O)[O-])c2)n1`, for which the survival is inactive: 66%.

Turning to `COc1ccc(CCNC(=O)C(=O)NCC(c2ccco2)S(=O)(=O)c2cccs2)cc1` (stereo unspecified), the survival is inactive: 99%.

On to `CCC(Sc1nc2cc3c(cc2c(=O)n1CCCCCC(=O)NCc1ccc2c(c1)OCO2)OCO3)C(=O)NCCCOC` (stereo unspecified), for which the survival was inactive: 83%.

For `Cc1ccccc1NC(=O)C1CCN(C(=O)c2ccc(F)cc2)CC1`, the survival was inactive: 70%.

With `N#C/C(=C\c1ccco1)C(=O)Nn1cnnc1`, the survival was inactive: 102%.

In the case of `COc1ccc(-c2nc3ccccc3n2Cc2ccc(C(C)C)cc2)cc1`, the survival is active: 4%.

In the case of `CCOc1ccc(NC(=O)Cn2cc(C(=O)c3ccc(F)cc3)c(=O)c3cc4c(cc32)OCO4)cc1`, the survival was inactive: 69%.

As to `CCOc1ccc2[nH]c(=S)c(C#N)cc2c1`, the survival was inactive: 100%.

Regarding `Cc1cccc(-c2nc3cc(NC(=O)c4ccc(OCC(C)C)cc4)ccc3o2)c1`, the survival was inactive: 113%.

Take `CCOC(=O)N1CCC(NC(=O)c2cnn(-c3ccc(C)cc3)c2-n2cccc2)CC1`: the survival was inactive: 69%.

For `COc1ccc(NC(=O)c2cnc(N3CCOCC3)c3ccccc23)cc1OC`, the survival was inactive: 73%.

In the case of `COc1cccc(CCNC(=O)c2ccc(Cn3c(SCc4ccccc4)nc4cccnc43)cc2)c1`, the survival was inactive: 55%.

In the case of `O=C(Nc1ccc2nc(SCCOc3ccccc3)sc2c1)c1ccco1`, the survival was inactive: 99%.

For `Cc1cccn2c(=O)c3cc(C(=O)NC(C)C)n(C)c3nc12`, the survival was active: 53%.

As to `O=C(CCCCCn1c(=O)[nH]c2ccccc2c1=O)NCCc1ccccc1`, the survival was inactive: 93%.

In the case of `COc1ccc(Cl)cc1NC(=O)CN(c1cccc(C)c1C)S(C)(=O)=O`, the survival is inactive: 87%.

For `Cc1cccc(S(=O)(=O)c2cn(Cc3ccc(F)cc3)c3cc(N4CCCCC4)c(F)cc3c2=O)c1`, the survival was active: -2%.

Consider `COc1ccc(CCNC(=O)Cn2c(=O)c3sccc3n(CC(=O)Nc3cccc(C(F)(F)F)c3)c2=O)cc1OC`, for which the survival was inactive: 82%.

Consider `O=C(NCc1cccc(Cl)c1)c1cnc(N2CCCCC2)c2ccccc12`, for which the survival was inactive: 83%.

Turning to `Cc1ccc(-n2ncc(C(=O)NCCc3ccsc3)c2C2CCN(C(=O)OC(C)(C)C)CC2)c(C)c1`, the survival was inactive: 69%.

Regarding `COC(=O)c1cccc(Nc2c(-c3ccc(SC)cc3)nc3nc[nH]n23)c1`, the survival is inactive: 115%.

Take `CCc1ccc(C2N=C(N)Nc3nc4ccccc4n32)cc1` (stereo unspecified): the survival was inactive: 137%.

Take `Cc1cccc(N2CCN(c3ncnc4onc(C)c34)CC2)c1C`: the survival is inactive: 82%.

For `COc1ccc(Cl)cc1NC(=O)C(OC)c1ccccc1` (stereo unspecified), the survival was inactive: 83%.

As to `O=c1c(Cl)c(NCc2ccco2)cnn1Cc1ccccc1`, the survival is inactive: 99%.

Regarding `COc1ccc(C(=O)Cn2nnc(-c3ccccc3)n2)cc1`, the survival was inactive: 73%.

On to `CC1=C(C(=O)Nc2cc(Cl)ccc2C)C(c2ccccc2F)n2ncnc2N1` (stereo unspecified), for which the survival was inactive: 75%.

For `CN1CCN(C(CNC(=O)C(=O)Nc2ccccc2C#N)c2ccc3c(c2)OCO3)CC1` (stereo unspecified), the survival is inactive: 73%.

On to `CCc1ccccc1NC(=O)c1cc(-c2ccc(OC)cc2)on1`, for which the survival was inactive: 62%.

Consider `COc1ccc(CCNC(=O)CSc2cc(=O)n(C)c3ccccc23)cc1OC`, for which the survival was inactive: 95%.

Consider `CCn1c(=O)c(=O)n(CC)c2cc(N3CCCCC3)c(NC(=O)c3ccc(OC)c(OC)c3)cc21`, for which the survival was inactive: 88%.

For the molecule `COc1cc(C(=O)Nc2sc3c(c2C(N)=O)CCC(C)C3)cc(OC)c1OC` (stereo unspecified), the survival was inactive: 53%.

Take `Cc1ccc2sc(N(CCCN(C)C)C(=O)c3ccco3)nc2c1C`: the survival is inactive: 128%.

For the molecule `COc1cc(C(=O)NN)ccc1-c1ccc(C(=O)NN)cc1`, the survival was inactive: 77%.

Turning to `Cc1ccc2c(c1)cc(CN(Cc1ccco1)C(=O)NCc1ccccc1)c1nnnn12`, the survival was inactive: 97%.

`CCc1ccc(CNC(=O)CN2C(=O)CSc3ccc(S(=O)(=O)N4CCOCC4)cc32)cc1`: the survival was inactive: 87%.

Consider `O=C(CSc1nc2c([nH]c3ccccc32)c(=O)n1-c1ccc(Cl)cc1)NCc1ccccc1`, for which the survival was inactive: 67%.
